Measured values reported in patent publication US11707062B2, “Formulation of stearyl alcohol” (PRO FARM GROUP, INC., priority 2017, dated 2023).

System: almond
Experiment: Almond orchard field trial, yield
Conditions: trees treated three times with 6 ml/L

## CCCCCCCCCCCCCCCCCCO [stearyl alcohol]
  yield higher than Surround or untreated: around 15%
